Measurements reported in article PMC4336329 (PLoS ONE, 2015).
About 14,000 (4.5%) of roughly 310,000 compounds showed an effect of 50% or more. The effect is printed as a negative number. The list shows a part of the results.

What follows are compounds tested against human ether-à-go-go-related gene (hERG) potassium channel (human, UniProt Q12809) (assay: primary screen, population patch clamp on CHO cells stably expressing hERG).
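Note: peak tail current of the secondary pulse compared with the same well before compound.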

human ether-à-go-go-related gene (hERG) potassium channel, sequence (Q12809 whole entry, looked up): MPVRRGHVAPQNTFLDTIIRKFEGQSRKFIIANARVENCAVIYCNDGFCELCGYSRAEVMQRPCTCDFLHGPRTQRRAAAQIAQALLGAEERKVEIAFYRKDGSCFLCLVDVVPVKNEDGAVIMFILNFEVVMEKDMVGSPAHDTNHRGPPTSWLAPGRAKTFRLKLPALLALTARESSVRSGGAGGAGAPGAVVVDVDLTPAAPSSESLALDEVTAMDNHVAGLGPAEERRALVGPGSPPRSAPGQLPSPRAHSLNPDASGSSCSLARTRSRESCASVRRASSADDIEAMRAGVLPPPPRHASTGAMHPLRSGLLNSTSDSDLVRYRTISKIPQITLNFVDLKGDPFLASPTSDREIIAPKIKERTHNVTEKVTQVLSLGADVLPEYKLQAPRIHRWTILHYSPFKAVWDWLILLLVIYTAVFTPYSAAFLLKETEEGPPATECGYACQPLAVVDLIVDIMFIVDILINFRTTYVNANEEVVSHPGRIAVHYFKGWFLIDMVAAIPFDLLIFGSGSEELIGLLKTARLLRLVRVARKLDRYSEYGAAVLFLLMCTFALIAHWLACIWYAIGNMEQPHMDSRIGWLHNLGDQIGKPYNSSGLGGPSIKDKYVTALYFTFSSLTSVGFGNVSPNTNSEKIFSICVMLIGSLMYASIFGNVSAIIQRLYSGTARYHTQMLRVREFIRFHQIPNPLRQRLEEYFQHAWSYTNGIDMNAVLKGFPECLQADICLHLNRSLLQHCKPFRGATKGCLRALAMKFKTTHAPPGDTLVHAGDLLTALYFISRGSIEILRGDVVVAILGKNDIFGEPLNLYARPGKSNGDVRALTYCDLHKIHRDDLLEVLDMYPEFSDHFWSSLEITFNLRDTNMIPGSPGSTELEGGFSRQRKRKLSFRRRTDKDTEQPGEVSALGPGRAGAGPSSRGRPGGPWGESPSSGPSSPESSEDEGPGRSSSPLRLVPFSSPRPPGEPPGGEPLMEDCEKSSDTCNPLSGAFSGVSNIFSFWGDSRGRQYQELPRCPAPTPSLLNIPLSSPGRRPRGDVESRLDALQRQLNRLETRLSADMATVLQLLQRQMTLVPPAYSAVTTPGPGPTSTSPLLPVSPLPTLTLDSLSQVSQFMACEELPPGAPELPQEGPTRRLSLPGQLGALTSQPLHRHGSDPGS

SMILES	hERG current change (%, negative = inhibition) at 10uM
CCOc1cccc(CNCCCSc2ncccn2)c1.Cl	-23.8%
COc1ccc(NC(=S)NCc2ccc(S(N)(=O)=O)cc2)cc1OC	18%
COc1ccc(NC(=O)CN(C2CCCCC2)S(C)(=O)=O)cc1OC	-0.377%
O=C(COc1ccccc1N1C(=O)C2C3C=CC(C3)C2C1=O)c1ccccc1 (centres unmarked)	-1.53%
Clc1ncccc1-c1nnn(-c2ccccc2)n1	15.1%
O=C(Cn1ccc(NC(=O)OCc2ccccc2)nc1=O)NCCc1c[nH]c2ccccc12	15.9%
C1CCN=C(Nc2nn[nH]n2)CC1	16.2%
O=C(c1ccccc1)N1CCN(C(=O)c2ccc3c(c2)OCO3)CC1	4.32%
COc1ccc(C2c3ccc(O)cc3Oc3ncn(Cc4ccco4)c(=N)c32)cc1 (centres unmarked)	-71.9%
COc1cc(/C=C2/SC(=S)N(CC(=O)NC(C)(C)C)C2=O)cc(OC)c1OC	14.3%
CCCCn1c(SC(C)C(N)=O)nc2cc(C(=O)OC)ccc2c1=O (centres unmarked)	-1.48%
CCOC(=O)C(NC(C)=O)(OCc1ccc(F)cc1)C(F)(F)F (centres unmarked)	7.18%
CCOc1ccccc1/C=C/c1cc(C(=O)O)c2ccccc2n1	13.3%
COc1ccc(OC)c(NC(=O)CCN2CCN(c3ccccc3OC)CC2)c1	2.82%
COc1ccc(C(=O)Nn2c(SCC(=O)NCc3ccccc3)nc3ccccc3c2=O)cc1	-8.34%
CSc1nc2ccc(NC(=O)c3ccc(=O)[nH]c3)cc2s1	12.5%
CCOC(=O)C1CCN(CC(=O)Nc2c(C(=O)OC)n(C)c3cccc(C)c23)CC1	-10.4%
CCc1ccc(S(=O)(=O)Nc2cc(SCC(=O)O)c(O)c3ccccc23)cc1	4.3%
Cc1cccc(NC(=O)NNC(=O)c2ccc(C)c([N+](=O)[O-])c2)c1	5.97%
Cc1noc(C)c1CSCC(=O)N(C)CC(=O)Nc1ccccc1Br	6.84%
Cc1cc(=O)[nH]c(SCC(=O)Nc2cccc(S(=O)(=O)N3CCOCC3)c2)n1	13.5%
CCN(C(=O)Cc1c(C(=O)O)[nH]c2ccccc12)c1ccc(OC)cc1	23.8%

SMILES	hERG current change (%, negative = inhibition) at 10uM
O=C(Nc1ccc(O)c(-c2nc3ccccc3s2)c1)c1cc(=O)c2ccccc2o1	5.18%
O=C(Nc1ccccc1)C(=O)c1cn(CC(=O)N2CCCCC2)c2ccccc12	-31.2%
O=C(CCC(=O)c1ccccc1)NC1CCCN(Cc2ccccc2F)C1 (centres unmarked)	-11%
N#Cc1c(SCC(=O)Nc2cccc(C(F)(F)F)c2)sc2c(O)cc(=O)[nH]c12	19.5%
Cc1cc2nnc(SC3CCOC3=O)n2c2ccccc12 (centres unmarked)	-10.3%
N=c1oc2cc(O)ccc2cc1C(=O)Nc1ccccn1	20.5%
CC(=O)Oc1ccc2ccccc2c1C(NC(=O)Cc1ccccc1)c1ccccc1 (centres unmarked)	-11.4%
O=C(COc1ccccc1)N=C1SC2CS(=O)(=O)CC2N1c1ccccc1F (centres unmarked)	3.73%
CCCCCn1c(=O)c(C(=O)NCc2ccc(Cl)cc2)c(O)c2ccccc21	4.19%
COc1ccc(-n2c(=S)[nH]c3cc(C(=O)Nc4cc(C(N)=O)ccc4OC)ccc3c2=O)c(OC)c1	26%
Cc1cc(C)nc(NS(=O)(=O)c2ccc(NC(=O)C(C)Oc3ccccc3F)cc2)n1 (centres unmarked)	19.7%
Cc1cc(C)cc(N(C(=O)c2csnn2)C(C(=O)NC2CCCC2)c2cccnc2)c1 (centres unmarked)	8.7%
O=C(Cn1cc(C(F)(F)F)ccc1=O)NCc1ccc(F)cc1	15.6%
O=[N+]([O-])c1ccc2oc(C3CCCCC3)nc2c1	7.67%
CC(=O)c1ccc(NC(=S)N2CCCC(CO)C2)cc1 (centres unmarked)	5.17%
Cc1nc2ccc(NC(=S)NC3CCCCC3)cc2nc1C	-25.7%
Cc1oc(-c2ccccc2)nc1C(=O)O	17%
CCOc1ccc(CCNC(=O)CCS(=O)(=O)c2ccc(Br)cc2)cc1OCC	13.8%
CC(C)NC(=O)CSc1nnc(CNC(=O)OC(C)(C)C)n1C	9.62%
CCC(=O)c1c[nH]c(C(=O)NCc2cccnc2)c1	21.3%
Cn1cc([N+](=O)[O-])c(C(=O)NCc2cc3ccccc3[nH]2)n1	5.96%
CSc1ccccc1NC(=O)CSc1nnc(Cc2ccccc2)o1	-2.35%
